Data taken from article PMC5892938.
This is one part of the list. At the low end of the ranking the order means little.

Target: GST-SBP-SLBP (stem-loop binding protein) (UniProt Q14493)
Assay: targeted RNA Bind-n-Seq;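 also: DESeq read counts versus GST-SBP nonspecific binding control pulldown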
Conditions: RBNS binding buffer: 25 mM Tris pH 7.5, 150 mM KCl, 3 mM MgCl2, 0.1% Tween, 0.5 mg/mL BSA, 1 mM DTT; 27 nM protein, 750 pM RNA pool; temperature not stated; high values mean tight binding

Row | Sequence | binding signal (log2 fold change)
1 | GGUCACGUCUCAAUCAACUCAAUUUCAGGAGUUUGCUCCUGUUUAUUCAACAGCUCGCAGUCAAG | 0.0538
2 | GGUCACGUCUCAAUCAACUCAACAGAGGGGGGGAAAACCCCUUUACCCUCCAUAUCAACAGCUCGCAGUCAAG | -0.134
3 | GGUCACGUCUCAAUCAACUCAAUUUCAGGAGUUUGCUCCUGUAUUCUCAACAGCUCGCAGUCAAG | 0.0216
4 | GGUCACGUCUCAAUCAACUCUUACGAGGGGGGGAAAACCCCUUUACCCUCAUCCUCAACAGCUCGCAGUCAAG | 0.156
5 | GGUCACGUCUCAAUCAACUCUUCUCCCAGGGAAACCCCUGGUAUUCUCAACAGCUCGCAGUCAAG | 0.0922
6 | GGUCACGUCUCAAUCAACUCUUUCCCCAGGGAAAGCCCUGGCAAUCUCAACAGCUCGCAGUCAAG | 0.161
7 | GGUCACGUCUCAAUCAACUCAACUUCAGGAGUUUACUCCUGCUUAUUCAACAGCUCGCAGUCAAG | 0.0699
8 | GGUCACGUCUCAAUCAACUCAACUUCAGGAGUUUUCUCCUGUUUUCUCAACAGCUCGCAGUCAAG | -0.18
9 | GGUCACGUCUCAAUCAACUCAACUCCCAGGGAAAACCCUGGCUAACUCAACAGCUCGCAGUCAAG | 0.146
10 | GGUCACGUCUCAAUCAACUCAUCUUCCAGGGAAACCCCUGGUUUAUUCAACAGCUCGCAGUCAAG | 0.102
11 | GGUCACGUCUCAAUCAACUCAUUUCCAGGAGUUUACUCCUGCAAACUCAACAGCUCGCAGUCAAG | -0.00363
12 | GGUCACGUCUCAAUCAACUCUUCGGCAGGAGUUUACUCCUGGAAUUUCAACAGCUCGCAGUCAAG | 0.0431
13 | GGUCACGUCUCAAUCAACUCUAUUUCCAGGGAAAUCCCUGGCAUAUUCAACAGCUCGCAGUCAAG | 0.124
14 | GGUCACGUCUCAAUCAACUCCUUAGAGGGGGGGAAAACCCCUUUGCCCUCCAAUUCAACAGCUCGCAGUCAAG | 0.133
15 | GGUCACGUCUCAAUCAACUCAAUCUCCAGGGAAAACCCUGGCUUACUCAACAGCUCGCAGUCAAG | 0.131
16 | GGUCACGUCUCAAUCAACUCAUUCCCCAGGGAAACCCCUGGUUAUCUCAACAGCUCGCAGUCAAG | -0.372
17 | GGUCACGUCUCAAUCAACUCAAUAGAGGGGGGGAAAACCCCUUUACCCUCAUUUUCAACAGCUCGCAGUCAAG | 0.161
18 | GGUCACGUCUCAAUCAACUCAAAAGAGGGGGGGAAAACCCCUUUACCCUCCACUUCAACAGCUCGCAGUCAAG | 0.104
19 | GGUCACGUCUCAAUCAACUCACCCGAGGGGGGGAAAACCCCUUUACCCUCAAUAUCAACAGCUCGCAGUCAAG | -0.229
20 | GGUCACGUCUCAAUCAACUCUUUUUCAGGAGUUUUCUCCUGCAAUCUCAACAGCUCGCAGUCAAG | -0.0408
21 | GGUCACGUCUCAAUCAACUCCCUAGAGGGGGGGAAAACCCCUUUACCCUCAAUUUCAACAGCUCGCAGUCAAG | -0.729
22 | GGUCACGUCUCAAUCAACUCAAGUCCAGGAGUUUACUCCUGCAUAUUCAACAGCUCGCAGUCAAG | -0.136
23 | GGUCACGUCUCAAUCAACUCAUUUCCCAGGGAAACCCCUGGCUAUCUCAACAGCUCGCAGUCAAG | -0.112
24 | GGUCACGUCUCAAUCAACUCAUCUUCCAGGGAAAUCCCUGGUAAUCUCAACAGCUCGCAGUCAAG | 0.248

Row | Sequence | binding signal (log2 fold change)
25 | GGUCACGUCUCAAUCAACUCUUUCGAGGGGGGGAAAACCCCUUUACCCUCACAUUCAACAGCUCGCAGUCAAG | -0.078
26 | GGUCACGUCUCAAUCAACUCAACUCCCAGGGAAAACCCUGGCAUAUUCAACAGCUCGCAGUCAAG | -0.00412
27 | GGUCACGUCUCAAUCAACUCAAUCCCCAGGGAAAGCCCUGGCAAUCUCAACAGCUCGCAGUCAAG | -0.116
28 | GGUCACGUCUCAAUCAACUCUUUUCCAGGAGUUUACUCCUGCAUACUCAACAGCUCGCAGUCAAG | 0.0562
29 | GGUCACGUCUCAAUCAACUCAUCGUCCAGGGAAAUCCCUGGUAUUUUCAACAGCUCGCAGUCAAG | 0.0744
30 | GGUCACGUCUCAAUCAACUCUUCUUCCAGGGAAAUCCCUGGCUUUCUCAACAGCUCGCAGUCAAG | -0.0155
31 | GGUCACGUCUCAAUCAACUCAUUUCCCAGGGAAAACCCUGGCAUAUUCAACAGCUCGCAGUCAAG | 0.255
32 | GGUCACGUCUCAAUCAACUCUCAAGAGGGGGGGAAAACCCCUUUGCCCUCAUAUUCAACAGCUCGCAGUCAAG | -0.268
33 | GGUCACGUCUCAAUCAACUCAUUUUCCAGGGAAAUCCCUGGCUUAUUCAACAGCUCGCAGUCAAG | -0.0954
34 | GGUCACGUCUCAAUCAACUCUCAAGAGGGGGGGAAAACCCCUUUGCCCUCAACAUCAACAGCUCGCAGUCAAG | 0.531
35 | GGUCACGUCUCAAUCAACUCUCCAGAGGGGGGGAAAACCCCUUUGCCCUCACAAUCAACAGCUCGCAGUCAAG | -0.123
36 | GGUCACGUCUCAAUCAACUCUAUUUCCAGGGAAACCCCUGGCUAUUUCAACAGCUCGCAGUCAAG | -0.0822
37 | GGUCACGUCUCAAUCAACUCUUUCUCCAGGGAAAUCCCUGGCAAUGUCAACAGCUCGCAGUCAAG | -0.337
38 | GGUCACGUCUCAAUCAACUCAAUCCCCAGGGAAACCCCUGGCUAAUUCAACAGCUCGCAGUCAAG | 0.0284
39 | GGUCACGUCUCAAUCAACUCAAUUUCCAGGGAAAACCCUGGCUAUUUCAACAGCUCGCAGUCAAG | -0.138
40 | GGUCACGUCUCAAUCAACUCAUCCCCCAGGGAAAUCCCUGGCUAACUCAACAGCUCGCAGUCAAG | 0.196
41 | GGUCACGUCUCAAUCAACUCAACGCCAGGAGUUUUCUCCUGUAAUUUCAACAGCUCGCAGUCAAG | 0.121
42 | GGUCACGUCUCAAUCAACUCAGUCCCAGGAGUUUUCUCCUGCUUUCUCAACAGCUCGCAGUCAAG | -0.115
43 | GGUCACGUCUCAAUCAACUCAACGCCAGGAGUUUUCUCCUGCAUAUUCAACAGCUCGCAGUCAAG | 0.281
44 | GGUCACGUCUCAAUCAACUCUUUCGCCAGGGAAACCCCUGGGUAUUUCAACAGCUCGCAGUCAAG | 0.0915
45 | GGUCACGUCUCAAUCAACUCAAUCUCCAGGGAAACCCCUGGCUUAUUCAACAGCUCGCAGUCAAG | -0.259
46 | GGUCACGUCUCAAUCAACUCUUCUCCAGGAGUUUACUCCUGUAAUGUCAACAGCUCGCAGUCAAG | -0.0272
47 | GGUCACGUCUCAAUCAACUCAGUCUCAGGAGUUUUCUCCUGCUAUUUCAACAGCUCGCAGUCAAG | -0.0075
